# Test results as given in the supplement of paper PMC8728848.
# This is one part of the list.
# What was measured:
# Experiment in all cases: glycan array binding signal (z-score within array); higher = stronger binding
# Details in all cases: glycan notation: IUPAC condensed, linker removed
# [1] = biological target: Neu5Ac(a2-3)Gal(b1-4)[Fuc(a1-3)]GlcNAc6S
# Procedure, shortened: (§1)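 The Consortium for Functional Glycomics database supplied 3228 glycan arrays, of which those lacking an available protein sequence were dropped. The binding signal, a within-array Z-score, was averaged across arrays of the same protein sequence and across linkers. Negative scores can be read as non-binding.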
# [2] = biological target: Neu5Ac(a2-3)Gal6S(b1-4)GlcNAc
# Procedure, shortened: as §1
# [3] = biological target: Neu5Ac(a2-3)Gal6S(b1-4)[Fuc(a1-3)]GlcNAc
# Procedure, shortened: as §1
# Neu5Ac(a2-3)GalNAc = biological target: Neu5Ac(a2-3)GalNAc
# Procedure, shortened: as §1
# [4] = biological target: Neu5Ac(a2-3)GalNAc(b1-4)GlcNAc
# Procedure, shortened: as §1
# [5] = biological target: Neu5Ac(a2-3)[GalNAc(b1-4)]Gal(b1-4)Glc
# Procedure, shortened: as §1
# [6] = biological target: Neu5Ac(a2-3)[GalNAc(b1-4)]Gal(b1-4)GlcNAc
# Procedure, shortened: as §1
# [7] = biological target: Neu5Ac(a2-3)[GalNAc(b1-4)]Gal(b1-4)GlcNAc(b1-3)GalNAc
# Procedure, shortened: as §1
# [8] = biological target: Neu5Ac(a2-3)[Neu5Ac(a2-6)]GalNAc
# Procedure, shortened: as §1
# Neu5Ac(a2-6)Gal = biological target: Neu5Ac(a2-6)Gal
# Procedure, shortened: as §1
# [9] = biological target: Neu5Ac(a2-6)Gal(b1-3)GlcNAc(b1-3)[Gal(b1-4)GlcNAc(b1-6)]Gal(b1-4)Glc
# Procedure, shortened: as §1
# Neu5Ac(a2-6)Gal(b1-4)Glc = biological target: Neu5Ac(a2-6)Gal(b1-4)Glc
# Procedure, shortened: as §1
# [10] = biological target: Neu5Ac(a2-6)Gal(b1-4)GlcNAc
# Procedure, shortened: as §1
# [11] = biological target: Neu5Ac(a2-6)Gal(b1-4)GlcNAc(b1-2)Man(a1-3)Man(b1-4)GlcNAc(b1-4)GlcNAc
# Procedure, shortened: as §1
# [12] = biological target: Neu5Ac(a2-6)Gal(b1-4)GlcNAc(b1-2)Man(a1-3)[Gal(b1-4)GlcNAc(b1-2)Man(a1-6)]Man(b1-4)GlcNAc(b1-4)GlcNAc
# Procedure, shortened: as §1
# [13] = biological target: Neu5Ac(a2-6)Gal(b1-4)GlcNAc(b1-2)Man(a1-3)[GlcNAc(b1-2)Man(a1-6)]Man(b1-4)GlcNAc(b1-4)GlcNAc
# Procedure, shortened: as §1
# [14] = biological target: Neu5Ac(a2-6)Gal(b1-4)GlcNAc(b1-2)Man(a1-3)[GlcNAc(b1-2)Man(b1-4)GlcNAc(b1-2)Man(a1-6)]Man(b1-4)GlcNAc(b1-4)GlcNAc
# Procedure, shortened: as §1
# [15] = biological target: Neu5Ac(a2-6)Gal(b1-4)GlcNAc(b1-2)Man(a1-3)[Man(a1-6)]Man(b1-4)GlcNAc(b1-4)GlcNAc
# Procedure, shortened: as §1
# [16] = biological target: Neu5Ac(a2-6)Gal(b1-4)GlcNAc(b1-2)Man(a1-3)[Neu5Ac(a2-6)Gal(b1-4)GlcNAc(b1-2)Man(a1-6)]Man(b1-4)GlcNAc(b1-4)GlcNAc
# Procedure, shortened: as §1
# [17] = biological target: Neu5Ac(a2-6)Gal(b1-4)GlcNAc(b1-2)Man(a1-6)Man(b1-4)GlcNAc(b1-4)GlcNAc
# Procedure, shortened: as §1
# [18] = biological target: Neu5Ac(a2-6)Gal(b1-4)GlcNAc(b1-2)Man(a1-6)[Gal(b1-4)GlcNAc(b1-2)Man(a1-3)]Man(b1-4)GlcNAc(b1-4)GlcNAc
# Procedure, shortened: as §1
# [19] = biological target: Neu5Ac(a2-6)Gal(b1-4)GlcNAc(b1-2)Man(a1-6)[GlcNAc(b1-2)Man(a1-3)]Man(b1-4)GlcNAc(b1-4)GlcNAc
# Procedure, shortened: as §1
# [20] = biological target: Neu5Ac(a2-6)Gal(b1-4)GlcNAc(b1-2)Man(a1-6)[Man(a1-3)]Man(b1-4)GlcNAc(b1-4)GlcNAc
# Procedure, shortened: as §1
# [21] = biological target: Neu5Ac(a2-6)Gal(b1-4)GlcNAc(b1-3)Gal(b1-3)GlcNAc
# Procedure, shortened: as §1
# [22] = biological target: Neu5Ac(a2-6)Gal(b1-4)GlcNAc(b1-3)Gal(b1-4)GlcNAc
# Procedure, shortened: as §1
# [23] = biological target: Neu5Ac(a2-6)Gal(b1-4)GlcNAc(b1-3)Gal(b1-4)GlcNAc(b1-3)Gal(b1-4)GlcNAc
# Procedure, shortened: as §1
# [24] = biological target: Neu5Ac(a2-6)Gal(b1-4)GlcNAc(b1-3)Gal(b1-4)[Fuc(a1-3)]GlcNAc(b1-3)Gal(b1-4)[Fuc(a1-3)]GlcNAc
# Procedure, shortened: as §1
# [25] = biological target: Neu5Ac(a2-6)Gal(b1-4)GlcNAc(b1-3)GalNAc
# Procedure, shortened: as §1
# [26] = biological target: Neu5Ac(a2-6)Gal(b1-4)GlcNAc6S
# Procedure, shortened: as §1
# Neu5Ac(a2-6)GalNAc = biological target: Neu5Ac(a2-6)GalNAc
# Procedure, shortened: as §1
# [27] = biological target: Neu5Ac(a2-6)GalNAc(b1-4)GlcNAc
# Procedure, shortened: as §1
# [28] = biological target: Neu5Ac(a2-6)GlcNAc(b1-4)GlcNAc
# Procedure, shortened: as §1
# [29] = biological target: Neu5Ac(a2-6)GlcNAc(b1-4)GlcNAc(b1-4)GlcNAc
# Procedure, shortened: as §1
# Neu5Ac(a2-8)Neu5Ac = biological target: Neu5Ac(a2-8)Neu5Ac
# Procedure, shortened: as §1
# [30] = biological target: Neu5Ac(a2-8)Neu5Ac(a2-3)Gal(b1-3)GalNAc(b1-4)[Neu5Ac(a2-8)Neu5Ac(a2-3)]Gal(b1-4)Glc
# Procedure, shortened: as §1
# [31] = biological target: Neu5Ac(a2-8)Neu5Ac(a2-3)Gal(b1-4)Glc
# Procedure, shortened: as §1
# [32] = biological target: Neu5Ac(a2-8)Neu5Ac(a2-3)[Gal(b1-3)GalNAc(b1-4)]Gal(b1-4)Glc
# Procedure, shortened: as §1
# [33] = biological target: Neu5Ac(a2-8)Neu5Ac(a2-3)[GalNAc(b1-4)]Gal(b1-4)Glc
# Procedure, shortened: as §1
# [34] = biological target: Neu5Ac(a2-8)Neu5Ac(a2-8)Neu5Ac
# Procedure, shortened: as §1
# [35] = biological target: Neu5Ac(a2-8)Neu5Ac(a2-8)Neu5Ac(a2-3)Gal(b1-4)Glc
# Procedure, shortened: as §1
# [36] = biological target: Neu5Ac(a2-8)Neu5Ac(a2-8)Neu5Ac(a2-3)[GalNAc(b1-4)]Gal(b1-4)Glc
# Procedure, shortened: as §1
# [37] = biological target: Neu5Ac(a2-8)Neu5Ac(a2-8)Neu5Ac(a2-8)Neu5Ac(a2-3)[GalNAc(b1-4)]Gal(b1-4)Glc
# Procedure, shortened: as §1
# [38] = biological target: Neu5Ac(b2-6)Gal(b1-4)GlcNAc
# Procedure, shortened: as §1
# Neu5Ac(b2-6)GalNAc = biological target: Neu5Ac(b2-6)GalNAc
# Procedure, shortened: as §1
# [39] = biological target: Neu5Ac9Ac(a2-3)Gal(b1-3)GlcNAc
# Procedure, shortened: as §1
binder,measurement,setting,value
"SefD (Salmonella enterica), Q9L6K6 (protein) GAYIIRGQNNSAHKLRIRIGGEDWQPDNSGIGMVSHSDFTNEFNIYYFGNGDIPVDTYLISIYATEIEL",glycan array binding signal (z-score),[1],-0.448
same,glycan array binding signal (z-score),[2],-0.274
same,glycan array binding signal (z-score),[3],-0.367
same,glycan array binding signal (z-score),Neu5Ac(a2-3)GalNAc,-0.179
same,glycan array binding signal (z-score),[4],-0.264
same,glycan array binding signal (z-score),[5],-0.476
same,glycan array binding signal (z-score),[6],-0.226
same,glycan array binding signal (z-score),[7],-0.547
same,glycan array binding signal (z-score),[8],0.227
same,glycan array binding signal (z-score),Neu5Ac(a2-6)Gal,-0.352
same,glycan array binding signal (z-score),[9],-0.158
same,glycan array binding signal (z-score),Neu5Ac(a2-6)Gal(b1-4)Glc,-0.45
same,glycan array binding signal (z-score),[10],-0.151
same,glycan array binding signal (z-score),[11],-0.493
same,glycan array binding signal (z-score),[12],0.667
same,glycan array binding signal (z-score),[13],-0.531
same,glycan array binding signal (z-score),[14],-0.442
same,glycan array binding signal (z-score),[15],-0.301
same,glycan array binding signal (z-score),[16],2.08
same,glycan array binding signal (z-score),[17],-0.575
same,glycan array binding signal (z-score),[18],-0.646
same,glycan array binding signal (z-score),[19],-0.228
same,glycan array binding signal (z-score),[20],-0.157
same,glycan array binding signal (z-score),[21],-0.157
same,glycan array binding signal (z-score),[22],1.78
same,glycan array binding signal (z-score),[23],0.312
same,glycan array binding signal (z-score),[24],-0.108
same,glycan array binding signal (z-score),[25],-0.405
same,glycan array binding signal (z-score),[26],0.087
same,glycan array binding signal (z-score),Neu5Ac(a2-6)GalNAc,0.116
same,glycan array binding signal (z-score),[27],-0.259
same,glycan array binding signal (z-score),[28],-0.535
same,glycan array binding signal (z-score),[29],-0.293
same,glycan array binding signal (z-score),Neu5Ac(a2-8)Neu5Ac,1.37
same,glycan array binding signal (z-score),[30],-0.42
same,glycan array binding signal (z-score),[31],0.431
same,glycan array binding signal (z-score),[32],0.969
same,glycan array binding signal (z-score),[33],-0.42
same,glycan array binding signal (z-score),[34],-0.435
same,glycan array binding signal (z-score),[35],-0.496
same,glycan array binding signal (z-score),[36],-0.374
same,glycan array binding signal (z-score),[37],-0.331
same,glycan array binding signal (z-score),[38],-0.3
same,glycan array binding signal (z-score),Neu5Ac(b2-6)GalNAc,-0.628
same,glycan array binding signal (z-score),[39],-0.479
